Laboratory results taken from PubChem BioAssay AID504466 (National Center for Advancing Translational Sciences (NCATS), 2011).
In all, about 330,000 compounds went through this assay and about 4,200 (1.3%) were called active. Inconclusive means that the source gave no clear call. Such entries were picked first, then a sample of the others. Calls come from the whole dose curve; as a rule, active = well fitted activation curve with a large enough effect; inconclusive = small, poorly fitted or top-dose-only effect; inactive = no such curve, though single readings can be large or run the other way. Potencies beside an inconclusive call are fits to weak or partial responses and may not hold up.
Potency is the fitted concentration of half-maximal effect; tags give direction and shape of the fitted curve.

Assay: qHTS screen for small molecules that induce genotoxicity in human embryonic kidney (HEK293T) cells expressing luciferase-tagged ELG1; note: nearly all actives have a fitted effect of over 60% in size; for activity change, positive = activation: % of control where 0% means no effect
Conditions: HEK293T ELG1-luciferase reporter, luminescence, 16 h; series mostly up to 46 µM; activity change, positive = activation: at the top concentration
Procedure, shortened: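 Screening used a luciferase reporter fused to human ELG1 in HEK293T cells. Luminescence was read on a CCD plate imager after 16 hr exposure and 30 min ONE-Glo incubation.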
In the case of `CN(C)S(=O)(=O)c1ccc(C(=O)NCCSc2ccccc2)cc1`, the Potency is reported as active: 10.3 µM. For `COc1cc(S(=O)(=O)n2ccnc2)ccc1Br`, the “activity change, positive = activation” value was inactive: 1.48%. For `O=Cc1s/c(=N\S(=O)(=O)c2ccccc2)n(CCCCl)c1Cl`, the “activity change, positive = activation” value was inactive: -16.7%. With `CCOC(=O)Nc1ccc2c(CN3CCN(S(=O)(=O)c4ccc(C(C)C)cc4)CC3)cc(=O)oc2c1` the “activity change, positive = activation” value was inactive: 1.02%. With `O=C(Cn1cnc2sc(-c3ccccc3)cc2c1=O)NCCc1ccccc1` the “activity change, positive = activation” value was inactive: 20.7%. For `Cc1ccc(NC(=O)c2cnc3ccccc3n2)cc1C`, the Potency was inconclusive: 2.59 µM [activator, full curve]. With `O=C(/C=C/Nc1ccc(F)c(F)c1)c1cccs1` the Potency was inconclusive: 4.11 µM [activator, full curve]. For `COc1cc2c(cc1OC)CN(c1ccc3ccccc3n1)CC2`, the Potency was inconclusive: 29.1 µM [activator, single point]. With `COc1ccc(NC(=O)C(=O)NCCC2CCCCN2S(=O)(=O)c2ccc(F)cc2)cc1` (stereo not given) the “activity change, positive = activation” value was inactive: -23.3%. For `COc1ccc(S(=O)(=O)N2CCCCCC2)cc1C(=O)NCCOc1ccc(C)cc1`, the “activity change, positive = activation” value was inactive: -3.23%. For `Cc1ccc(-c2ccnc(-c3ccc(O)cc3)n2)cc1`, the Potency was inconclusive: 14.6 µM [activator, partial curve, poor fit]. In the case of `Cc1cc(C(=O)Nc2ccccc2)oc1C`, the Potency is reported as inconclusive: 11.6 µM [activator, partial curve]. In the case of `O=C(Cn1c(=O)n(-c2ccc(F)cc2)c(=O)c2sccc21)NC1CCCCC1`, the Potency is reported as inconclusive: 29.1 µM [activator, single point]. In the case of `O=C(NCCCN1CCCC1=O)c1csc2ccccc12`, the Potency is reported as inconclusive: 16.4 µM [activator, partial curve, poor fit]. With `O=C(CCNS(=O)(=O)c1ccc(Br)cc1)NCc1ccco1` the “activity change, positive = activation” value was inactive: -6.8%. With `O=C(c1cc(-c2ccccn2)nc2c(Cl)cccc12)N1CCN(S(=O)(=O)c2ccccc2)CC1` the “activity change, positive = activation” value was inactive: -4.72%. For `CCCCCCC(=O)N(O)C1CC(=O)N(c2ccc(Br)cc2)C1=O` (stereo not given), the Potency was inconclusive: 17.8 µM [activator, single point]. With `Cn1c(CSc2nc3ccccc3s2)nc2ccccc21` the Potency was active: 13 µM. With `O=C(O)c1ccc(N/N=C/c2ccc(-c3ccc(Br)cc3)o2)cc1` the Potency was inconclusive: 5.8 µM [activator, full curve]. With `CCCNc1nc2c(c(=O)[nH]c(=O)n2C)n1Cc1cccc(Br)c1` the Potency was inconclusive: 23.1 µM [activator, partial curve, poor fit]. For `CN(C)N=Nc1nc2c(c(=O)n(C)c(=O)n2C)n1CC1CO1` (stereo not given), the Potency was inconclusive: 20.6 µM [activator, single point]. With `COc1ccc(S(=O)(=O)n2nc(C)c(S(=O)(=O)N3CCOCC3)c2C)cc1OC` the “activity change, positive = activation” value was inactive: -1.78%. With `O=C(CCNS(=O)(=O)c1cccs1)N1CCN(c2cccc(Cl)c2)CC1` the “activity change, positive = activation” value was inactive: -13.3%. For `COc1ccccc1N1C(=O)c2ccc(C(=O)Nc3ccc(C(=O)O)cc3)cc2C1=O`, the “activity change, positive = activation” value was inactive: 0.568%. For `Cc1ccc(C(=O)NNC(=O)c2cccs2)cc1`, the Potency was inconclusive: 14.6 µM [activator, partial curve]. In the case of `O=C(Nc1ccc2c(c1)OCO2)c1ccc(Cl)s1`, the Potency is reported as active: 2.59 µM. For `CC1(C)COC(/C=C/c2ccc([N+](=O)[O-])cc2)=N1`, the “activity change, positive = activation” value was inactive: -8.62%. With `CC(C)c1ccc(CCNC(=O)c2cccc(S(=O)(=O)N3CCN(C)CC3)c2)cc1` the “activity change, positive = activation” value was inactive: -20.4%. In the case of `O=C(Nc1ccncc1)c1ccc2ncsc2c1`, the Potency is reported as inconclusive: 2.59 µM [activator, partial curve, poor fit]. With `Cc1noc(C)c1COc1ccc(C(=O)O)cc1` the “activity change, positive = activation” value was inactive: 2.52%. In the case of `CCc1nc(SCc2ccc(Cl)cc2)n[nH]1`, the Potency is reported as inconclusive: 13 µM [activator, partial curve, poor fit]. With `O=C(Cn1cnc2sc(-c3ccccc3)cc2c1=O)NCc1ccccc1` the Potency was inconclusive: 32.6 µM [activator, partial curve, poor fit]. In the case of `COc1ccc(NC(=O)CN(C)C(=O)/C=C/c2ccc(S(=O)(=O)N3CCCCCC3)cc2)cc1`, the Potency is reported as inconclusive: 13 µM [activator, partial curve, poor fit]. In the case of `c1ccc(CCc2nc(-c3ccccn3)no2)cc1`, the Potency is reported as inconclusive: 7.31 µM [activator, partial curve, poor fit]. With `O=C(Cc1cccs1)Nc1nc2ccccc2s1` the “activity change, positive = activation” value was inactive: 8.23%. With `CNC(=O)[C@H]1O[C@@H](n2cnc3c(NCc4cccc(I)c4)ncnc32)[C@H](O)[C@@H]1O` the Potency was inconclusive: 11.6 µM [activator, partial curve]. With `CC(C)(C)NC(=O)NCCc1ccccc1` the Potency was inconclusive: 8.2 µM [activator, partial curve]. With `Cc1nnc2ccc(-c3cccc(NC(=O)Cc4cccs4)c3)nn12` the Potency was inconclusive: 14.6 µM [activator, partial curve, poor fit]. With `COc1ccc(C2SCC(=O)N2c2nc3ccccc3s2)cc1` (stereo not given) the “activity change, positive = activation” value was inactive: 3.94%. In the case of `COc1ccc(NC(=O)c2onc(C)c2Cl)cc1`, the Potency is reported as inconclusive: 13 µM [activator, partial curve, poor fit]. In the case of `CC(=O)Oc1c(Cl)cc(Cl)cc1/C=C/c1ccc2ccccc2n1`, the “activity change, positive = activation” value is reported as inactive: 0.953%. For `CC(C)c1nc2cc3ccccc3cc2[nH]1`, the “activity change, positive = activation” value was inactive: 2.6%. For `CC(C)c1nnc(NC(=O)c2cccnc2)s1`, the Potency was inconclusive: 18.4 µM [activator, single point]. With `COc1cc(C(=O)Nc2ccc(OCC(=O)O)cc2)cc(OC)c1OC` the “activity change, positive = activation” value was inactive: 0.91%. With `O=[N+]([O-])c1ccc(-c2nc(NCC3CCCO3)c3ccccc3n2)cc1` (stereo not given) the “activity change, positive = activation” value was inactive: -14.3%. With `Cc1ccc2[nH]c3c(c2c1)CCC3=O` the Potency was inconclusive: 18.4 µM [activator, partial curve, poor fit]. In the case of `O=C(NC1CCCN(Cc2ccc(Cl)cc2)C1)c1c(F)ccc(F)c1F` (stereo not given), the “activity change, positive = activation” value is reported as inactive: 0.922%. In the case of `C/C=C\C=C/C(=O)Nc1cccc(C2=NOC3(C2)C[C@@H](C(N)=O)N(C(=O)CCCCC)C3)c1` (stereo not given in full), the “activity change, positive = activation” value is reported as inactive: 2.22%. With `CC(=O)c1ccc(NC(=O)C(C)Sc2ccccn2)cc1` (stereo not given) the Potency was inconclusive: 23.1 µM [activator, partial curve, poor fit]. In the case of `CC(=O)c1ccc(NC(=O)CSc2nnc(NC(=O)CN3CCOCC3)s2)cc1`, the Potency is reported as inconclusive: 16.4 µM [activator, single point].
